# Where “and” joins values, the source holds several entries; their conditions need not be identical. Identical values can stand only once. About 5,900 (2.8%) of roughly 210,000 compounds were called active. Inconclusive means that the source gave no clear call. Such entries were picked first, then a sample of the others. Calls come from the whole dose curve; as a rule, active = well fitted activation curve with a large enough effect; inconclusive = small, poorly fitted or top-dose-only effect; inactive = no such curve, though single readings can be large or run the other way. A potency beside an inconclusive call is a rough fit, not a confirmed value. Some compounds were tested as several samples or in several runs, with calls that do not always agree.
# Assay: qHTS Assay for Enhancers of SMN2 Splice Variant Expression; note: nearly all actives have a fitted effect of over 55% in size; for activity change, positive = activation: % of control where 0% means no effect
# Conditions: HEK293 SMN2-luciferase splicing reporter, luminescence, 30-36 h; activity change, positive = activation: at 46.1 µM (top of the series)
# Outline: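 HEK293 cells carry an SMN2 minigene-luciferase reporter in which exon 7 inclusion puts luciferase in frame. Cells were seeded at 2000 cells/well, attached for 10-12 hours, then exposed to compounds for 30-36 hours at 37C before ONE-Glo luminescence.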
# Potency is the fitted concentration of half-maximal effect; tags give direction and shape of the fitted curve.
SMILES,Potency,"activity change, positive = activation"
CCN(CC)S(=O)(=O)c1cccc(C(=O)Nc2ccccc2C(=O)N2CCOCC2)c1,"inconclusive: 35.5 µM [activator, partial curve, poor fit]",
Cc1ccc(-c2cc(NC(=O)COc3c(C)cc(C)cc3C)on2)cc1,"inconclusive: 12.6 µM [activator, single point]",
OC(COc1ccccc1)CN1CCOCC1 (stereo not given),inactive,
COc1cc(NC(=O)c2csc3c2CCCC3)ncn1,active: 12.6 µM,
O=C(CON1C(=O)c2ccccc2C1=O)c1ccccc1,,inactive: -7.23% [at 9.22 µM]
Cc1cccc(N(CC(=O)NCC2CCCO2)C(=O)CCC(=O)Nc2cc(C)on2)c1 (stereo not given),"inconclusive: 5.01 µM [activator, full curve]",
COC(=O)c1ccc(C(NC(=O)OCc2ccccc2)/C(C)=C/[C@@H](C)C(=O)NCCO)cc1 (stereo not given in full),inactive,
CC1CN(C(=O)Nc2ccc3snnc3c2)c2ccccc21 (stereo not given),"inconclusive: 11.2 µM [activator, single point]",
O=C(Nc1nc2ccc(Cl)cc2s1)C1CCCO1 (stereo not given),active: 22.4 µM,
O=C(N/N=C/c1ccc([N+](=O)[O-])cc1)c1c[nH]c2ccccc12,"inconclusive: 15.8 µM [activator, partial curve]",
CCOC(=O)CN1N=C(/C=C/c2ccc(OCC)cc2)CCC1=O,inactive,
O=C(Nc1ccccc1Cl)c1ccc(COc2ccc3c(c2)CCC3)cc1,active: 6.31 µM,
CCNC(=S)Nc1cc(C)ccn1,"inconclusive: 5.62 µM [activator, single point]",
Cc1nn(Cc2c(F)c(F)c(F)c(F)c2F)c(C)c1NC(=O)c1ccc(COc2cc(Cl)ccc2Cl)cc1,"inconclusive: 15.8 µM [activator, single point]",
c1ccc(Cc2cc(-c3ccccc3)on2)cc1,"inconclusive: 10 µM [activator, partial curve]",
O=C(Cc1cccs1)NCc1ccc2c(c1)OCO2,"inconclusive: 20 µM [activator, partial curve, poor fit]",
Cc1ccc(Cn2c(CN(C)Cc3ccccc3)nc3c2c(=O)n(C)c(=O)n3C)cc1,"inconclusive: 0.0032 µM [activator, full curve, poor fit]",
CC[C@H](C)C(=O)O[C@H]1C[C@@H](C)C=C2C=C[C@H](C)[C@H](CC[C@@H]3C[C@@H](O)CC(=O)O3)[C@H]21,inactive and active: 15.8 µM,
CCc1nnc(NC(=O)c2ccc(Cl)nc2)s1,inactive,
Cc1cc(C(=O)COC(=O)CNC(=O)c2ccccc2)c(C)n1CC1CCCO1 (stereo not given),inactive,

# From PubChem BioAssay AID1458 (National Center for Advancing Translational Sciences (NCATS), 2008)
